Data: the supplement of paper PMC3334620
Over roughly 33,000 sequences, “E-score (-0.5 to 0.5)” has its median near -0.056; the highest 2% begin near 0.38. The list shows a part of the results.

Target: Stb4 (UniProt P50104)
Assay: PBM E-score (8-mer binding enrichment) (E-score (-0.5 to 0.5)); higher = stronger / more preferred TF binding; most listed sequences are background and not binding sites
Conditions: protein concentration: 200 nM; construct: GST-DNA-binding domain
Procedure, shortened: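 The E-score, a modified Wilcoxon-Mann-Whitney statistic, was computed by the Universal PBM Analysis Suite for every ungapped eight-base word pooled with its reverse complement. Scans behind it were normalised with masliner after bound GST-tagged yeast transcription factors were detected with fluorescent anti-GST. The proteins, at about 100-200 nM, had been applied to universal all-10-mer Agilent arrays made double-stranded by primer extension.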

Sequence | PBM E-score
TCCTGGAA | -0.154
CCCACACC | -0.0519
GGTGTTCA | -0.00913
AGGTGACC | -0.247
AGCAGCAT | -0.179
CGAGCTGA | 0.195
AATCGAGC | -0.107
CTGACGGA | 0.139
ACACCAAG | -0.0984
CCAAGGGA | -0.271
CCGCGTAC | 0.129
AACTTCTG | -0.0541
ACCGACGC | 0.167
CCTTCACA | -0.247
CACGGCGA | -0.125
CGCACTGA | -0.0372
ACAGGACA | -0.0558
ACCCGCCG | 0.338
GCTAAGGA | -0.0617
CGACAGCG | 0.189
TACGAATA | -0.153
AGTATCGA | -0.072
ACACCCAA | -0.00959
GGACACTA | -0.0191
AGGCATTG | 0.029

Sequence | PBM E-score
ACTTTTGC | -0.212
GTACCTAC | -0.172
ACCTGTTA | -0.184
CTCACCGA | 0.143
AGACTAGC | -0.334
CTAGCGTA | -0.0278
AAGTTGCT | -0.0668
CTTCGGGC | 0.291
GGTACTAC | 0.0917
GCGAAGCA | 0.0182
CGCAGTTC | -0.0365
AGTAGCCC | 0.106
AGTGGCAT | -0.0624
CCACTAAG | -0.0818
TATTGGGA | -0.178
GGAGGACC | 0.0144
AGATTTTA | -0.0136
AGACTCAG | -0.149
AGGACTGC | -0.292
CACCGATG | -0.0266
CCCGATTA | 0.291
CTGCACAG | -0.0816
CGGACTAA | 0.225
AGTTTTGC | -0.00155
TAGCTAAA | -0.0773

Sequence | PBM E-score
GGGAAGAC | 0.106
AGGGATGG | -0.174
CACACCAG | -0.227
ACGACGCA | -0.0583
AATCCCCA | -0.157
ACCTTTGA | -0.103
GCAATCGA | -0.00458
ATTACGCG | 0.056
ACGTCATG | -0.195
CGGGTAAC | 0.393
ACCAGCGA | -0.0461
ATCCTCAA | 0.115
CAGCCGCA | -0.0661
GAATTCAC | -0.0439
GTATCCAA | -0.0398
AAATTAGA | -0.0616
CTCGTTGA | -0.247
TCCAATCA | -0.0146
CACCGGAA | 0.412
CCATGTGA | -0.167
ATTGACAG | -0.0183
GAAAGTCC | 0.0828
TAAAGAAA | 0.076
AGCTACGC | -0.143
ACGAACGC | -0.15

Sequence | PBM E-score
ACGTTAGG | -0.22
ATCACCAG | -0.0727
GGTAGTCA | -0.0705
ACTGAAAA | -0.00443
CGCGGATA | 0.4
ACGCCTCG | 0.0824
CTTAGCTA | -0.128
CTTCTCTC | -0.135
ACAAGGGT | -0.0844
GGAACTCA | 0.207
AGTAGCAC | -0.0343
TCATGGAA | 0.033
ACATGGGT | 0.00817
TCATAGGA | -0.155
CTGACCGC | 0.151
AAGGATAG | 0.00922
ACGGATCT | 0.28
GTGGGCGA | -0.178
GTATTCGA | -0.169
CCGGAGAC | 0.289
ACAGACCA | -0.108
ATAGAACC | -0.0706
ACTAGTAT | -0.0476
CAGAGGAC | -0.137
GCGTTGTA | -0.267

Sequence | PBM E-score
CCATGAAA | -0.0336
CTAGCCAC | -0.287
CACGTATA | -0.0961
CCTGGGCA | -0.264
ATTAAGCG | -0.147
ACGTCTAT | -0.141
CGTCCGGA | 0.3
GGCAAACC | 0.115
AGCGTTCA | -0.0378
AAATCTGA | -0.0542
AGCTATGA | -0.099
CATCGGAC | 0.259
GCGGTGAA | -0.079
TAACCTCA | -0.139
CATACCTC | -0.125
AGAAAACG | 0.0795
GGACTCCA | 0.0858
CCCCATGA | -0.121
CCATCAAG | -0.303
ACCATCCA | -0.0674
ATCAGGCA | -0.242
ACCTCTCT | -0.252
AGCCTGAC | -0.204
GCATGTAA | -0.223
CACATTAA | -0.246

Sequence | PBM E-score
TAGATCAA | -0.189
CAATCTGG | -0.199
AAAGTGAT | -0.0394
GACCCACC | 0.0559
GATACCCA | -0.188
AACGCTCC | -0.179
ACTAAAGC | -0.195
AAAGCGTA | 0.189
GCACGATA | 0.0337
ACTCATCC | 0.113
AAACAGCC | 0.0192
ATGATTGG | -0.111
GCTACGAA | -0.176
GACACATA | -0.124
AGGAACTC | -0.0879
AGTAACGA | -0.17
AACGCAGC | -0.106
AAGGTAGT | 0.0685
CGCTTGAG | -0.219
AAGCGACA | -0.099
AATTTCGT | -0.0623
AGATAAAA | 0.00409
CGATATCA | -0.0336
GCCGGTGA | 0.0548
AATCGCCG | 0.212

Sequence | PBM E-score
CACCGTCC | 0.0816
ATTATATA | -0.0872
AGGCCGCA | -0.152
CCGACACA | 0.257
CACTCACA | 0.0246
AGGTCCAT | -0.0701
TCGCTAAA | -0.0444
ACTGTTCA | 0.00126
AGCGGTAA | 0.172
AGTTAGCA | -0.0145
ACTATACG | 0.00583
ATAGGCAC | -0.166
ACAATAGG | -0.0504
ACCAGAGG | -0.26
AATGCATA | -0.0419
AATAAAGA | -0.0131
AGTGCGAG | -0.133
GACTCCTC | 0.075
AGAGGCCA | -0.108
TCGTCTAA | -0.133
CCGGGATC | 0.384
ATCGTGGG | -0.0127
AGCCCGAT | 0.0559
TGTCCCAA | -0.0943
ATAGTCTG | -0.241

Sequence | PBM E-score
CGTATCTC | 0.113
AGGGCAAG | 0.0211
ATACGATG | 0.0197
GCTTCGCA | -0.173
AACAGGGG | -0.00592
GAGCGAGC | 0.0386
ACGTATGG | -0.197
ACTTCAAG | -0.229
ACTGTCTA | -0.185
CACAGCCC | -0.158
GTGAAGGA | -0.119
CAAACCGA | 0.135
ATGAACAC | -0.0474
ACGAAAAT | -0.199
GCAAAGAA | 0.0392
AAAAATTT | 0.0986
AACCCGCA | 0.156
AGGCTTGG | -0.0137
AGAAAGTC | 0.0306
ATAAATCG | 0.00309
GAGTCGAC | -0.126
ACATAGTC | -0.1
ACTCTCAG | -0.279
GACAAGCC | -0.0179
CGTCGACA | -0.0762

Sequence | PBM E-score
ACCCTGCT | -0.149
CATACAAG | -0.0716
GGTCAGAA | 0.00512
CCGGAAAC | 0.394
GGAATTAA | 0.194
CCATGAGC | -0.171
ATGTGTTG | -0.137
CTCCGAAC | 0.427
ATAGCGAG | -0.123
GACAGGGC | -0.122
GACTGGGA | -0.0314
ACTCAGCA | -0.084
AGGTCAAA | -0.231
CTCGTCGC | -0.116
CTCCCAAC | -0.0824
ACCTGTGC | -0.211
GGTTGCTA | 0.0181
CGAGTGAG | 0.157
GTCTTCGA | -0.232
AAGAGTGA | -0.237
TCTCCAGA | -0.0837
CTACCAAA | 0.0172
AGAACACT | 0.0948
GCGTCATA | -0.0552
GATTGCGC | -0.00733

Sequence | PBM E-score
TCAGTCAA | -0.147
CGCGGAAC | 0.395
ACAGCCAA | -0.135
GGCGACAA | -0.0824
CAGGGCGC | -0.175
AGTGTAAG | -0.191
CCCTAAGG | -0.232
ACAAGGGC | -0.0269
AGCGGAGA | 0.0304
ACTATATC | -0.137
GTCGGATA | 0.463
ATGGAGAG | -0.252
CGAGGCCA | 0.0718
CATAGCTA | -0.0675
AATCTCCT | -0.0714
AGGCGACG | -0.0581
GGGGACCC | -0.0645
CCCGTGAC | 0.211
GTACAAAA | -0.165
TACCCCGA | 0.342
ACTCAAGG | -0.0695
CAACGTTC | 0.0557
ATTTCACC | -0.0142
AGGTTGGA | 0.0581
CTTTCCTA | -0.134

Sequence | PBM E-score
ATCGTGTG | 0.00933
CTGTTGAA | -0.00908
ATTTTGGC | 0.0403
ACAGGCCA | -0.0282
ACTGGTTA | -0.0984
ACTTTAAC | -0.0859
CAGTTGTA | -0.156
CGTCAATC | -0.141
ATATCCCA | 0.235
AGAAGTAG | -0.314
CTGGTGTA | -0.169
CCATCTCG | 0.228
ACGATTGG | -0.176
ATGCCTTC | -0.0568
AGGGAGCG | -0.163
AGCGGTTA | 0.0198
ATATTCAT | -0.224
CATACCGG | 0.146
CCGTTGAC | 0.00559
ACCGTCTC | -0.0425
ACACCTAC | -0.0226
ATCAAGGA | -0.368
ACCGACCA | 0.141
AAAGATCA | -0.118
ATGTAAAA | -0.18

Sequence | PBM E-score
CCTTTCCC | 0.222
AACCATCA | 0.054
ATTCATAC | 0.0839
CTAAAAAA | 0.124
ATGCAAAT | -0.115
ATGAGTGC | -0.0135
GATTTTAA | 0.152
ACAACAGG | -0.116
AAAATCAG | -0.00881
ATGGATTG | -0.00783
CTCTTATC | -0.024
CTTATCAA | -0.188
CAAGGTAA | -0.0482
AGTACTAC | -0.177
GCTCTACA | -0.12
GGCTGGCA | -0.209
AGAGAAGC | -0.039
AAAGTTCG | 0.209
CGAACCAA | 0.0796
GGACTTAA | 0.086
CCCGCGAG | 0.141
AAAATCAC | -0.0706
AGTCAAGA | -0.145
AAGGTGAA | 0.00295
GTAGAAAC | 0.0749

Sequence | PBM E-score
AAAATTTT | 0.231
ATTTGCTA | -0.168
AACCGTAG | -0.0947
CGCTCAAG | -0.152
TCCCAACA | -0.0766
CCTCAACA | -0.119
ACCCAGTC | -0.0444
CGAAGCAA | -0.00587
CAGTTCCA | -0.0647
CACACTGC | -0.113
AGTCCTAT | -0.12
CGTCCCTC | -0.128
CCGTTTCC | 0.22
AAGTGGCT | -0.0265
GCAGACTA | -0.242
GGGATGGA | 0.0991
CCGAAAGC | 0.377
TAACGTGA | -0.101
CATGTTCG | 0.0927
CGAAAAAA | 0.173
ACGCTGCG | -0.168
CTTACCTC | -0.00464
ATCCCAGC | -0.0722
TCAGAGGA | -0.183
CGCTGCAG | 0.0249

Sequence | PBM E-score
AAGTAGTC | -0.0513
CAAGGCCG | 0.0789
GATGTTAC | 0.0225
GGCATAGA | 0.0757
AGCCACTC | -0.119
CTTCACGC | 0.0341
ATCCACTA | -0.0568
CTCCCGAA | 0.43
CACAGTGC | 0.0114
AACTCAGA | -0.304
AAAATGCA | -0.101
CCTTTCCG | 0.381
GCATATCA | 0.0661
GCCTTTCC | 0.171
GGAAACCC | 0.198
GCGTTAAA | -0.0629
AAACCAAT | 0.113
CAGCTAAA | -0.232
CAACATGA | -0.00103
